The campaign covered roughly 310,000 compounds. About 14,000 (4.5%) showed an effect of 50% or more. The effect is printed as a negative number. This is one part of the list.
Target: human ether-à-go-go-related gene (hERG) potassium channel (human, UniProt Q12809)
Assay: primary screen, population patch clamp on CHO cells stably expressing hERG
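Further: peak tail current of the secondary pulse compared with the same well before compound.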

Sequence of human ether-à-go-go-related gene (hERG) potassium channel (Q12809 whole entry, looked up): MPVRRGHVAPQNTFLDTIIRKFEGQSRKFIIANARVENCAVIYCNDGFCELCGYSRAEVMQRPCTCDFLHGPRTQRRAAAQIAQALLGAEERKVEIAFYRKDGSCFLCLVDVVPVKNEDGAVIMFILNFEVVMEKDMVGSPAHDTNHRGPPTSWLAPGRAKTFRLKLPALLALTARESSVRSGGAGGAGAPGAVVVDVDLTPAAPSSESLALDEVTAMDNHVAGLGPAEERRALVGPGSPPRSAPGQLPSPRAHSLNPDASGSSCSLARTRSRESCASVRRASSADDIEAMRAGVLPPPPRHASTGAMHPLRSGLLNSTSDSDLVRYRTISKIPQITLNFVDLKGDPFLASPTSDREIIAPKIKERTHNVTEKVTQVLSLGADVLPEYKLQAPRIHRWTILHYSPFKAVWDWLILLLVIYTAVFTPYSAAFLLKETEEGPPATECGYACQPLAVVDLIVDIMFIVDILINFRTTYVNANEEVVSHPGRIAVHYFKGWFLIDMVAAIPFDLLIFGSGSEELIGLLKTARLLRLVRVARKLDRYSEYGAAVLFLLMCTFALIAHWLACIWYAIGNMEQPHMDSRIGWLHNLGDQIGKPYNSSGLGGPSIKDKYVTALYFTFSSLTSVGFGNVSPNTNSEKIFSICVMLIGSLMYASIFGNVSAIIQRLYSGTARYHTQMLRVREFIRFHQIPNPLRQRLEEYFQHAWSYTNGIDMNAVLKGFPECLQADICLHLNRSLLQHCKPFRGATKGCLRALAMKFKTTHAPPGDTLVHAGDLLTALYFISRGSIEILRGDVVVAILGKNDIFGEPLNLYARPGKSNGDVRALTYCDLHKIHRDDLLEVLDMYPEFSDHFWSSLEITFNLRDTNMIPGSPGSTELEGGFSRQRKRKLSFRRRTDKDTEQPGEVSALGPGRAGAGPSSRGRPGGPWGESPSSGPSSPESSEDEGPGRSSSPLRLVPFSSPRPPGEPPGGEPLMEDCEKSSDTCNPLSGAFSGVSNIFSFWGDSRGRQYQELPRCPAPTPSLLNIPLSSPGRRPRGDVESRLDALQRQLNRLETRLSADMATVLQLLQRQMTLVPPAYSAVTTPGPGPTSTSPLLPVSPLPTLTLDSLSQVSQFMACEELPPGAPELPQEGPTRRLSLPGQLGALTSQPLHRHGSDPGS

How did the “hERG current change (%, negative = inhibition) at 10uM” value turn out when Cc1ccc(-c2cc(C(F)F)nc(NCc3cccs3)n2)cc1 was run?
Its value is 3.73%.

Which “hERG current change (%, negative = inhibition) at 10uM” value does the source give for O=C1NC(=O)C(CCc2ccncc2)(CCc2ccncc2)C(=O)N1CCc1ccccc1 here?
The value was -71.7%.

For Oc1ccc(/C=N/NC(=S)N2CCOCC2)cc1, which “hERG current change (%, negative = inhibition) at 10uM” value is on record?
Its value is 10.1%.

For CSc1sc(C(=O)N(C)C)cc1S(=O)(=O)C(C)C, which “hERG current change (%, negative = inhibition) at 10uM” value is on record?
Its value is 1.94%.

For COc1ccccc1NC(=S)NC(=O)C(C)C, which “hERG current change (%, negative = inhibition) at 10uM” value is on record?
Its value is -21.8%.

With CC1(C)NC(=O)N(CC(=O)N2CCN(S(=O)(=O)c3cc(Cl)ccc3Cl)CC2)C1=O as the molecule, how does the “hERG current change (%, negative = inhibition) at 10uM” value read?
Its value is 1.86%.

How did the “hERG current change (%, negative = inhibition) at 10uM” value turn out when CCOC(=O)c1c(NC(=O)C(C)OC(=O)C2=COCCO2)sc2c1CCCC2 (stereo not drawn) was run?
The value was 8.73%.

Which “hERG current change (%, negative = inhibition) at 10uM” value does the source give for N#C/C(C(=O)N1CCOCC1)=C1/SC(Cc2ccc(F)cc2)C(=O)N1c1ccccc1 (stereo not drawn) here?
Its value is -5.71%.

With COc1cc(CNc2ccc(N3CCN(C(C)=O)CC3)cc2)ccc1OCc1ccccc1 as the molecule, how does the “hERG current change (%, negative = inhibition) at 10uM” value read?
Its value is -5.28%.

Cc1ccc(-c2cc(C(=O)N/N=C/c3c(C)nn(C)c3C)c3ccccc3n2)c(C)c1 was tested. Which “hERG current change (%, negative = inhibition) at 10uM” value did it give?
The value was -7.92%.

With Cl.Oc1ccccc1Nc1nc(NCc2ccco2)c2ccccc2n1 as the molecule, how does the “hERG current change (%, negative = inhibition) at 10uM” value read?
Its value is -29.3%.

CNc1ccccc1C(C)(C)c1cc(-c2cc(C)cc(C)c2)no1 was tested. Which “hERG current change (%, negative = inhibition) at 10uM” value did it give?
The value was 12.6%.

Which “hERG current change (%, negative = inhibition) at 10uM” value does the source give for Cc1ccc(S(=O)(=O)NC(CC(=O)N2CCOCC2)c2ccco2)cc1 (stereo not drawn) here?
The value was 11.4%.

For CCCCNc1cnn(-c2ccccc2)c(=O)c1Cl, which “hERG current change (%, negative = inhibition) at 10uM” value is on record?
Its value is 7.55%.

How did the “hERG current change (%, negative = inhibition) at 10uM” value turn out when COc1cc(/C=C/C(=O)OCC(=O)NCc2cccs2)ccc1OCC#N was run?
The value was -8.86%.

For CCN(CC)CCOC(=O)c1ccc(NC(=O)/C=C/c2cccs2)cc1.Cl, which “hERG current change (%, negative = inhibition) at 10uM” value is on record?
Its value is -76.3%.

CCCCCC(=O)Nc1cccc2ccccc12 was tested. Which “hERG current change (%, negative = inhibition) at 10uM” value did it give?
Its value is -2.38%.

Which “hERG current change (%, negative = inhibition) at 10uM” value does the source give for Cc1oc(-c2ccc(C(F)(F)F)cc2)nc1CN(Cc1ccccn1)C[C@@H]1CCC(=O)N1 here?
Its value is -38.2%.

With CCN(CC)c1ccc(C=Nc2ccccc2C)c(O)c1 as the molecule, how does the “hERG current change (%, negative = inhibition) at 10uM” value read?
Its value is 0.0297%.

Which “hERG current change (%, negative = inhibition) at 10uM” value does the source give for COc1ccc(NC(=O)Cn2c(=O)n(CC(=O)NCc3ccco3)c(=O)c3ccccc32)cc1OC here?
The value was 12.4%.

How did the “hERG current change (%, negative = inhibition) at 10uM” value turn out when CC(CCc1ccccc1)NC(=O)c1ccc(NC(=O)c2ccc(Cl)cc2Cl)cc1 (stereo not drawn) was run?
Its value is 6.31%.

For C/C(=N\NS(=O)(=O)c1ccc(Br)cc1)c1ccc2c(c1)OCO2, which “hERG current change (%, negative = inhibition) at 10uM” value is on record?
Its value is -17.1%.

With O=C(N/N=C/c1ccc(O)c(O)c1)c1ccc(-n2cnnn2)cc1 as the molecule, how does the “hERG current change (%, negative = inhibition) at 10uM” value read?
The value was -3.29%.

For Cc1ccc(C)c(N2CCN(c3nc4ccccc4c(=O)n3Cc3ccccc3)CC2)c1, which “hERG current change (%, negative = inhibition) at 10uM” value is on record?
Its value is 14.1%.

With O=C(CSc1nnc(-c2ccco2)n1Cc1ccccc1)NC(=O)NCc1ccccc1 as the molecule, how does the “hERG current change (%, negative = inhibition) at 10uM” value read?
The value was -13.3%.

How did the “hERG current change (%, negative = inhibition) at 10uM” value turn out when COCCC(=O)N(Cc1ccc2c(c1)OCO2)C(C(=O)NC1CCCCC1)c1ccncc1 (stereo not drawn) was run?
The value was -12.1%.

CCOC(=O)C1Nc2ccc(C(=O)O)cc2C2C=CCC12 (stereo not drawn) was tested. Which “hERG current change (%, negative = inhibition) at 10uM” value did it give?
Its value is 21%.

CC(=O)Nc1ccc(NC(=O)C(C)OC(=O)c2ccc3[nH]c(C)c(C)c3c2)cc1 (stereo not drawn) was tested. Which “hERG current change (%, negative = inhibition) at 10uM” value did it give?
The value was 3.39%.

How did the “hERG current change (%, negative = inhibition) at 10uM” value turn out when O=C(NCc1ccccc1Cl)c1cc(=O)[nH]c2ccccc12 was run?
The value was 8.19%.

With CC1CCCCC1NC(=S)NC(=O)c1sc2ccccc2c1Cl (stereo not drawn) as the molecule, how does the “hERG current change (%, negative = inhibition) at 10uM” value read?
Its value is 11.8%.

COc1ccccc1N1CCN(CC(=O)Nc2cccc(F)c2)CC1 was tested. Which “hERG current change (%, negative = inhibition) at 10uM” value did it give?
Its value is -28.1%.

With CSC1=NC(=O)/C(=C/c2ccc(SC)cc2)S1 as the molecule, how does the “hERG current change (%, negative = inhibition) at 10uM” value read?
Its value is 38.5%.

CCOC(=O)c1ccccc1NC(=O)c1ccccc1N(C)S(C)(=O)=O was tested. Which “hERG current change (%, negative = inhibition) at 10uM” value did it give?
Its value is -9.1%.

How did the “hERG current change (%, negative = inhibition) at 10uM” value turn out when C=CCSc1nnc(NC(=O)C2CC(=O)N(Cc3ccc(C)cc3)C2)s1 (stereo not drawn) was run?
The value was -22.7%.

How did the “hERG current change (%, negative = inhibition) at 10uM” value turn out when CC1CN(c2ccc(NC(=S)NNCCC#N)cc2)CC(C)O1 (stereo not drawn) was run?
Its value is 13.1%.

For O=C(Nc1cccc(Cl)c1)c1ccc(=O)[nH]n1, which “hERG current change (%, negative = inhibition) at 10uM” value is on record?
Its value is 3.6%.

Cc1ccc(C(=O)OCC(=O)NC2CCCC(C)C2C)cc1S(=O)(=O)N1CCCCC1 (stereo not drawn) was tested. Which “hERG current change (%, negative = inhibition) at 10uM” value did it give?
The value was -2.28%.

How did the “hERG current change (%, negative = inhibition) at 10uM” value turn out when COc1ccccc1CNC(=O)Cc1ccc(Br)cc1 was run?
Its value is -4.93%.

Cn1c(SCc2ccccc2Cl)nc2c1c(=O)[nH]c(=O)n2C was tested. Which “hERG current change (%, negative = inhibition) at 10uM” value did it give?
The value was 13.4%.

How did the “hERG current change (%, negative = inhibition) at 10uM” value turn out when S=C(Nc1ccc2c(c1)OCO2)NC1CCN(Cc2ccccc2)CC1 was run?
Its value is -24.2%.

How did the “hERG current change (%, negative = inhibition) at 10uM” value turn out when CCOC(=O)C1CN(S(=O)(=O)c2ccc(OC)cc2)c2cc(Cl)ccc2O1 (stereo not drawn) was run?
Its value is 3.8%.

CC1CCN(C(=O)c2ccc3c(=O)n4c(nc3c2)CCCCC4)CC1 was tested. Which “hERG current change (%, negative = inhibition) at 10uM” value did it give?
Its value is 3.73%.

Source: PMC4336329 (PLoS ONE, 2015)
